Assay [1] deals with influenza virus A/Almaty/8/98 (H3N2). Put plainly: Virus inhibitory activity on chicken embryo model (chemical therapeutic index). The following applies: samples 0.0016%–0.2% (0.003–0.4 mg per chicken embryo), Rimantadine 10 µg/mL, Tamiflu 6 µg/mL.
Assay [2] shares this test system. The following applies: compound 0.2%, 0.4 mg/ch.e. (8 mg/kg).
Assay [3] relates to neuraminidase activity of influenza virus A/Almaty/8/98 (H3N2). Put plainly: Effect on neuraminidase activity (fluorescent kit). Conditions: maximum dose 1 mg/100 μL.

On to `COc1ccc(-c2cn(C[C@@H]3CCCN4CCCC[C@H]34)nn2)cc1` [Compound 1, (1S,9aR)-1-{[4-(4-Methoxyphenyl)-1H-1,2,3-triazol-1-yl]methyl}octahydro-2H-quinolizine], for which the “Chemical Therapeutic Index of the Studied Sample” value (“Chemical Therapeutic Index” below) in assay [1] is reported as 65.0.

For the molecule `Cc1cccc(-c2cn(C[C@@H]3CCCN4CCCC[C@H]34)nn2)c1` [Compound 2, (1S,9aR)-1-{[4-(m-Tolyl)-1H-1,2,3-triazol-1-yl]methyl}octahydro-2H-quinolizine], the “Chemical Therapeutic Index” value in assay [1] is on record as 65.0. For the same molecule, in assay [2], the “Decrease in Influenza Virus Infectivity Titer, lg” value amounted to 0.75 lg.

Take `c1ccc(-c2cn(C[C@@H]3CCCN4CCCC[C@H]34)nn2)cc1` [Compound 3, (1S,9aR)-1-[(4-Phenyl-1H-1,2,3-triazol-1-yl)methyl]octahydro-2H-quinolizine]: in assay [1], the “Chemical Therapeutic Index” value came out at 8.0. Also, the “Decrease in Influenza Virus Infectivity Titer, lg” value in assay [2] is given as 0.0 lg.

In the case of `O=Cc1ccc(OCc2cn(C[C@@H]3CCCN4CCCC[C@H]34)nn2)cc1` [Compound 4, 4-({1-[((1S,9aR)-Octahydro-2H-quinolizin-1-yl)methyl]-1H-1,2,3-triazol-4-yl}methoxy)benzaldehyde], the “Chemical Therapeutic Index” value in assay [1] was determined as 50.0. In addition, the “Suppression of neuraminidase activity” value in assay [3] is “no more than 40%”.

`CCc1cc(C(=O)OCc2cn(C[C@@H]3CCCN4CCCC[C@H]34)nn2)c(O)c(C(C)(C)C)c1` [Compound 5, {1-[((1S,9aR)-Octahydro-2H-quinolizin-1-yl)methyl]-1H-1,2,3-triazol-4-yl}methyl-3-tert-butyl-2-hydroxy-5-ethylbenzoate]: in assay [1], the “Chemical Therapeutic Index” value is above 100.0. Also, the “Suppression of neuraminidase activity” value in assay [3] is “no more than 40%”.

Consider `CC(N)C12CC3CC(CC(C3)C1)C2` (stereo not drawn) [Rimantadine, alpha-methyltricyclo[3.3.1.1/.7]decan-1-methanamine, reference compound], for which, in assay [1], the “Chemical Therapeutic Index” value was found to be 29.9.

Take `CCOC(=O)C1=C[C@@H](OC(CC)CC)[C@H](NC(C)=O)[C@@H](N)C1` [Tamiflu, (3R,4R,5S)-4-acetylamino-5-amino-3-(1-ethylpropoxy)-1-cyclohexene-1-carboxylic acid ethyl ether, phosphate, reference compound]: the “Chemical Therapeutic Index” value in assay [1] is on record as 10.3.

Source of the values: PMC11644009 (Molecules, 2024).
